# According to publication PMC9911399, “Two distinct binding modes provide the RNA-binding protein RbFox with extraordinary sequence specificity”:
# Residue numbers refer to the chain shown, from its start. Some of the results follow.
# T1: RBFOX1 RRM (Homo sapiens, UniProt Q9NWB1 109-208)
# T1 sequence: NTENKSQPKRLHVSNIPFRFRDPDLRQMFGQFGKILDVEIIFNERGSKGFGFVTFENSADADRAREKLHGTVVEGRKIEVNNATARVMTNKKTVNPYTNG
# B1: UCGAGCU (DNA:RNA)
# RNA: GGGAGACCGGAAUUCAGAUUGUCCUCGAGCUUUAAAUCCCGUCGUAGCCACCA
# DNA 1: CAATCTGAATTCCGGTCTCCC
# DNA 2: TGGTGGCTACGACGGGATT
# B2: AAGUGAG (DNA:RNA)
# RNA: B1 RNA with U25A, C26A, A28U, C30A, U31G
# DNA 1: CAATCTGAATTCCGGTCTCCC
# DNA 2: TGGTGGCTACGACGGGATT
# B3: GUUCCGU (DNA:RNA)
# RNA: B1 RNA with U25G, C26U, G27U, A28C, G29C, C30G
# DNA 1: CAATCTGAATTCCGGTCTCCC
# DNA 2: TGGTGGCTACGACGGGATT
# B4: ACUGGAG (DNA:RNA)
# RNA: B1 RNA with U25A, G27U, A28G, C30A, U31G
# DNA 1: CAATCTGAATTCCGGTCTCCC
# DNA 2: TGGTGGCTACGACGGGATT
# B5: UGCCACU (DNA:RNA)
# RNA: B1 RNA with C26G, G27C, A28C, G29A
# DNA 1: CAATCTGAATTCCGGTCTCCC
# DNA 2: TGGTGGCTACGACGGGATT
# B6: UAGUUUG (DNA:RNA)
# RNA: B1 RNA with C26A, A28U, G29U, C30U, U31G
# DNA 1: CAATCTGAATTCCGGTCTCCC
# DNA 2: TGGTGGCTACGACGGGATT
# B7: GAGCACG (DNA:RNA)
# RNA: B1 RNA with U25G, C26A, A28C, G29A, U31G
# DNA 1: CAATCTGAATTCCGGTCTCCC
# DNA 2: TGGTGGCTACGACGGGATT
# B8: GCUUGGA (DNA:RNA)
# RNA: B1 RNA with U25G, G27U, A28U, C30G, U31A
# DNA 1: CAATCTGAATTCCGGTCTCCC
# DNA 2: TGGTGGCTACGACGGGATT
# B9: UGGACCU (DNA:RNA)
# RNA: B1 RNA with C26G, G29C
# DNA 1: CAATCTGAATTCCGGTCTCCC
# DNA 2: TGGTGGCTACGACGGGATT
# B10: UCUCAGC (DNA:RNA)
# RNA: B1 RNA with G27U, A28C, G29A, C30G, U31C
# DNA 1: CAATCTGAATTCCGGTCTCCC
# DNA 2: TGGTGGCTACGACGGGATT
# B11: ACAGGGC (DNA:RNA)
# RNA: B1 RNA with U25A, G27A, A28G, C30G, U31C
# DNA 1: CAATCTGAATTCCGGTCTCCC
# DNA 2: TGGTGGCTACGACGGGATT
# B12: CGGAGUG (DNA:RNA)
# RNA: B1 RNA with U25C, C26G, C30U, U31G
# DNA 1: CAATCTGAATTCCGGTCTCCC
# DNA 2: TGGTGGCTACGACGGGATT
# B13: GCACGGU (DNA:RNA)
# RNA: B1 RNA with U25G, G27A, A28C, C30G
# DNA 1: CAATCTGAATTCCGGTCTCCC
# DNA 2: TGGTGGCTACGACGGGATT
# B14: GACAGCC (DNA:RNA)
# RNA: B1 RNA with U25G, C26A, G27C, U31C
# DNA 1: CAATCTGAATTCCGGTCTCCC
# DNA 2: TGGTGGCTACGACGGGATT
# B15: GGAUCAC (DNA:RNA)
# RNA: GGGAGACCGGAAUUCAGAUUGUCCGGAUCACUUAAAUCCCGUCGUAGCCACCA
# DNA 1: CAATCTGAATTCCGGTCTCCC
# DNA 2: TGGTGGCTACGACGGGATT
# B16: AUGGUAC (DNA:RNA)
# RNA: B15 RNA with G25A, G26U, A27G, U28G, C29U
# DNA 1: CAATCTGAATTCCGGTCTCCC
# DNA 2: TGGTGGCTACGACGGGATT
# B17: GAUCGUG (DNA:RNA)
# RNA: B15 RNA with G26A, A27U, U28C, C29G, A30U, C31G
# DNA 1: CAATCTGAATTCCGGTCTCCC
# DNA 2: TGGTGGCTACGACGGGATT
# B18: UUUUAUC (DNA:RNA)
# RNA: B15 RNA with G25U, G26U, A27U, C29A, A30U
# DNA 1: CAATCTGAATTCCGGTCTCCC
# DNA 2: TGGTGGCTACGACGGGATT
# B19: UAAAGGA (DNA:RNA)
# RNA: B1 RNA with C26A, G27A, C30G, U31A
# DNA 1: CAATCTGAATTCCGGTCTCCC
# DNA 2: TGGTGGCTACGACGGGATT
# B20: UGUUGCG (DNA:RNA)
# RNA: B1 RNA with C26G, G27U, A28U, U31G
# DNA 1: CAATCTGAATTCCGGTCTCCC
# DNA 2: TGGTGGCTACGACGGGATT
# B21: UCAACAC (DNA:RNA)
# RNA: B15 RNA with G25U, G26C, U28A
# DNA 1: CAATCTGAATTCCGGTCTCCC
# DNA 2: TGGTGGCTACGACGGGATT
# B22: GCGCUUU (DNA:RNA)
# RNA: B1 RNA with U25G, A28C, G29U, C30U
# DNA 1: CAATCTGAATTCCGGTCTCCC
# DNA 2: TGGTGGCTACGACGGGATT
# B23: AUUAUGA (DNA:RNA)
# RNA: B1 RNA with U25A, C26U, G27U, G29U, C30G, U31A
# DNA 1: CAATCTGAATTCCGGTCTCCC
# DNA 2: TGGTGGCTACGACGGGATT
# B24: GGUGUGC (DNA:RNA)
# RNA: B15 RNA with A27U, U28G, C29U, A30G
# DNA 1: CAATCTGAATTCCGGTCTCCC
# DNA 2: TGGTGGCTACGACGGGATT
# B25: AUGUUUG (DNA:RNA)
# RNA: B15 RNA with G25A, G26U, A27G, C29U, A30U, C31G
# DNA 1: CAATCTGAATTCCGGTCTCCC
# DNA 2: TGGTGGCTACGACGGGATT
# B26: GGCUGAC (DNA:RNA)
# RNA: B15 RNA with A27C, C29G
# DNA 1: CAATCTGAATTCCGGTCTCCC
# DNA 2: TGGTGGCTACGACGGGATT
# B27: UGCAGAU (DNA:RNA)
# RNA: B1 RNA with C26G, G27C, C30A
# DNA 1: CAATCTGAATTCCGGTCTCCC
# DNA 2: TGGTGGCTACGACGGGATT
# B28: AAACCGA (DNA:RNA)
# RNA: B15 RNA with G25A, G26A, U28C, A30G, C31A
# DNA 1: CAATCTGAATTCCGGTCTCCC
# DNA 2: TGGTGGCTACGACGGGATT
# B29: AGCUUAA (DNA:RNA)
# RNA: B15 RNA with G25A, A27C, C29U, C31A
# DNA 1: CAATCTGAATTCCGGTCTCCC
# DNA 2: TGGTGGCTACGACGGGATT
# B30: GUUAAGU (DNA:RNA)
# RNA: B1 RNA with U25G, C26U, G27U, G29A, C30G
# DNA 1: CAATCTGAATTCCGGTCTCCC
# DNA 2: TGGTGGCTACGACGGGATT
# B31: CUGUGAC (DNA:RNA)
# RNA: B15 RNA with G25C, G26U, A27G, C29G
# DNA 1: CAATCTGAATTCCGGTCTCCC
# DNA 2: TGGTGGCTACGACGGGATT
# Molecular target: T1, RBFOX1 RRM
# Assay: EMSA; HiTS-Eq, 1 nM pool, 10 min; buffer printed only for the single-RNA assays: 10 mM Tris pH 7.5, 150 mM NaCl, 3.4 mM EDTA, 0.001% NP-40, 30 C
# Conditions: tags: His6 N-terminal (pET28a); label: 5' 32P
# Procedure, shortened: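 Purified wild-type or mutant RbFox RRM at increasing concentrations was equilibrated with 1 nM of 5′-radiolabelled RNA carrying 7 randomized nucleotides for 10 min in 50 µL. Unbound RNA was separated by 8% native PAGE and sequenced. Relative association constants came from read-count changes of each RNA species compared with the control reaction, normalised to the cognate motif.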
row,Binder,binding signal
1,B1,0.0133 KA relative to UGCAUGU
2,B2,0.00568 KA relative to UGCAUGU
3,B3,0.014 KA relative to UGCAUGU
4,B4,0.00586 KA relative to UGCAUGU
5,B5,0.0106 KA relative to UGCAUGU
6,B6,0.0246 KA relative to UGCAUGU
7,B7,0.0394 KA relative to UGCAUGU
8,B8,0.0122 KA relative to UGCAUGU
9,B9,0.0178 KA relative to UGCAUGU
10,B10,0.0078 KA relative to UGCAUGU
11,B11,0.0117 KA relative to UGCAUGU
12,B12,0.0283 KA relative to UGCAUGU
13,B13,0.0324 KA relative to UGCAUGU
14,B14,0.0108 KA relative to UGCAUGU
15,B15,0.013 KA relative to UGCAUGU
16,B16,0.0115 KA relative to UGCAUGU

row,Binder,binding signal
1,B17,0.0183 KA relative to UGCAUGU
2,B18,0.00798 KA relative to UGCAUGU
3,B19,0.00067 KA relative to UGCAUGU
4,B20,0.0326 KA relative to UGCAUGU
5,B21,0.00159 KA relative to UGCAUGU
6,B22,0.0174 KA relative to UGCAUGU
7,B23,0.00658 KA relative to UGCAUGU
8,B24,0.0168 KA relative to UGCAUGU
9,B25,0.0211 KA relative to UGCAUGU
10,B26,0.026 KA relative to UGCAUGU
11,B27,0.0169 KA relative to UGCAUGU
12,B28,0.00102 KA relative to UGCAUGU
13,B29,0.00163 KA relative to UGCAUGU
14,B30,0.0112 KA relative to UGCAUGU
15,B31,0.00781 KA relative to UGCAUGU
